Assay results taken from the supplement of paper PMC4604168 (melanoma cell lines).
The other results are listed elsewhere or left out. Most values come without repeats; read them as rough.

Key:
Experiment in all cases: cell count relative to DMSO control; melanoma cells; higher = more viable cells
Conditions in all cases: library dose: standard library concentration; 72 h
A101D = tested on: A101D
A2058 = tested on: A2058
A375 = tested on: A375
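Further: cells treated in 1,536-well plates, then fixed and DAPI-stained, with nuclei counted from automated high-throughput microscope images.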

`COc1cc([C@@H]2c3cc4c(cc3[C@@H](O[C@@H]3O[C@@H]5CO[C@@H](C)O[C@H]5[C@H](O)[C@H]3O)[C@H]3COC(=O)[C@H]23)OCO4)cc(OC)c1O` [etoposide] + C#Cc1cccc(Nc2ncnc3cc(OCCOC)c(OCCOC)cc23)c1 [erlotinib] (first compound 0.1 µM, partner dose 4 µM) was tested, and the cell count (A101D) was 56%, the cell count (A2058) was 51.3% and the cell count (A375) was 67.2%.

`COc1cc([C@@H]2c3cc4c(cc3[C@@H](O[C@@H]3O[C@@H]5CO[C@@H](C)O[C@H]5[C@H](O)[C@H]3O)[C@H]3COC(=O)[C@H]23)OCO4)cc(OC)c1O` [etoposide] + CO[C@H]1C[C@@H]2CC[C@@H](C)[C@@](O)(O2)C(=O)C(=O)N2CCCC[C@H]2C(=O)O[C@H]([C@H](C)C[C@@H]2CC[C@@H](OCCO)[C@H](OC)C2)CC(=O)[C@H](C)/C=C(\C)[C@@H](O)[C@@H](OC)C(=O)[C@H](C)C[C@H](C)/C=C/C=C/C=C/1C [everolimus] (first compound 0.1 µM, partner dose 0.1 µM) was tested, and the cell count (A101D) was 70.9%, the cell count (A2058) was 54.7% and the cell count (A375) was 62.1%.

Work on `COc1cc([C@@H]2c3cc4c(cc3[C@@H](O[C@@H]3O[C@@H]5CO[C@@H](C)O[C@H]5[C@H](O)[C@H]3O)[C@H]3COC(=O)[C@H]23)OCO4)cc(OC)c1O` [etoposide] + Cn1c(Nc2ccc(C(F)(F)F)cc2)nc2cc(Oc3ccnc(-c4ncc(C(F)(F)F)[nH]4)c3)ccc21 [CHIR265] (first compound 0.1 µM, partner dose 0.4 µM) yielded a cell count (A101D) of 58.7%, a cell count (A2058) of 59.8% and a cell count (A375) of 84.8%.

For `CCN(CC)CCNC(=O)c1c(C)[nH]c(/C=C2\C(=O)Nc3ccc(F)cc32)c1C` [sunitinib] + CCCCCCCCc1ccc(CCC(N)(CO)CO)cc1 [fingolimod] (first compound 2 µM, partner dose 10 µM), the cell count (A101D) was 5.35%, the cell count (A2058) was 5.05% and the cell count (A375) was 37.9%.

Molecule `CCN(CC)CCNC(=O)c1c(C)[nH]c(/C=C2\C(=O)Nc3ccc(F)cc32)c1C` [sunitinib] + Nc1cccc2c1CN(C1CCC(=O)NC1=O)C2=O [lenalidomide] (first compound 2 µM, partner dose 5 µM) has a cell count (A101D) of 62.6%, a cell count (A2058) of 85.7% and a cell count (A375) of 89.1%.

`Cn1cnc2c(F)c(Nc3ccc(Br)cc3Cl)c(C(=O)NOCCO)cc21` [selumetinib] + Nc1ccn([C@@H]2O[C@H](CO)[C@@H](O)C2(F)F)c(=O)n1 [gemcitabine] (first compound 0.075 µM, partner dose 0.002 µM) was tested, and the cell count (A101D) was 78.9%, the cell count (A2058) was 79.3% and the cell count (A375) was 94.7%.

`CCN(CC)CCNC(=O)c1c(C)[nH]c(/C=C2\C(=O)Nc3ccc(F)cc32)c1C` [sunitinib] + Nc1ncn([C@H]2C[C@H](O)[C@@H](CO)O2)c(=O)n1 [decitabine] (first compound 2 µM, partner dose 0.5 µM) showed a cell count (A101D) of 63.2%, a cell count (A2058) of 85% and a cell count (A375) of 102%.

In the case of `COc1cc([C@@H]2c3cc4c(cc3[C@@H](O[C@@H]3O[C@@H]5CO[C@@H](C)O[C@H]5[C@H](O)[C@H]3O)[C@H]3COC(=O)[C@H]23)OCO4)cc(OC)c1O` [etoposide] + CCCS(=O)(=O)Nc1ccc(F)c(C(=O)c2c[nH]c3ncc(Cl)cc23)c1F [PLX4720] (first compound 0.1 µM, partner dose 0.4 µM), the cell count (A101D) is reported as 81%, the cell count (A2058) is reported as 89.4% and the cell count (A375) is reported as 78%.

Work on `CCN(CC)CCNC(=O)c1c(C)[nH]c(/C=C2\C(=O)Nc3ccc(F)cc32)c1C` [sunitinib] + O=C(CCCCCCC(=O)Nc1ccccc1)NO [vorinostat] (first compound 2 µM, partner dose 0.4 µM) yielded a cell count (A101D) of 62.4%, a cell count (A2058) of 73.2% and a cell count (A375) of 102%.

For `Cn1cnc2c(F)c(Nc3ccc(Br)cc3Cl)c(C(=O)NOCCO)cc21` [selumetinib] + CO[C@@H]1[C@H](N(C)C(=O)c2ccccc2)C[C@H]2O[C@]1(C)n1c3ccccc3c3c4c(c5c6ccccc6n2c5c31)C(=O)NC4 [Midostaurin] (first compound 0.075 µM, partner dose 0.4 µM), the cell count (A101D) was 53.8%, the cell count (A2058) was 63.4% and the cell count (A375) was 62.2%.

In the case of `CCN(CC)CCNC(=O)c1c(C)[nH]c(/C=C2\C(=O)Nc3ccc(F)cc32)c1C` [sunitinib] + COc1cc(Nc2ncc(F)c(Nc3ccc4c(n3)NC(=O)C(C)(C)O4)n2)cc(OC)c1OC [Tamatinib] (first compound 2 µM, partner dose 2 µM), the cell count (A101D) is reported as 19.1%, the cell count (A2058) is reported as 65.4% and the cell count (A375) is reported as 105%.

`Cn1cnc2c(F)c(Nc3ccc(Br)cc3Cl)c(C(=O)NOCCO)cc21` [selumetinib] + Cc1cc([N+](=O)[O-])ccc1NS(=O)(=O)c1cc(Cl)ccc1Cl [FH535] (first compound 0.075 µM, partner dose 5 µM) showed a cell count (A101D) of 68.4%, a cell count (A2058) of 80.2% and a cell count (A375) of 88.3%.

`COc1cc([C@@H]2c3cc4c(cc3[C@@H](O[C@@H]3O[C@@H]5CO[C@@H](C)O[C@H]5[C@H](O)[C@H]3O)[C@H]3COC(=O)[C@H]23)OCO4)cc(OC)c1O` [etoposide] + Cc1cn(-c2cc(NC(=O)c3ccc(C)c(Nc4nccc(-c5cccnc5)n4)c3)cc(C(F)(F)F)c2)cn1 [nilotinib] (first compound 0.1 µM, partner dose 1 µM) showed a cell count (A101D) of 82.6%, a cell count (A2058) of 81.6% and a cell count (A375) of 87.6%.

`CCN(CC)CCNC(=O)c1c(C)[nH]c(/C=C2\C(=O)Nc3ccc(F)cc32)c1C` [sunitinib] + O=C(O)c1ccc2c(c1)nc(Nc1cccc(Cl)c1)c1ccncc12 [CX4945] (first compound 2 µM, partner dose 2 µM) showed a cell count (A101D) of 63.5%, a cell count (A2058) of 78.1% and a cell count (A375) of 66.8%.

`C[C@]1(O)C[C@@H](c2nc(-c3ccc4ccc(-c5ccccc5)nc4c3)c3c(N)nccn32)C1` + CS(=O)(=O)CCNCc1ccc(-c2ccc3ncnc(Nc4ccc(OCc5cccc(F)c5)c(Cl)c4)c3c2)o1 [lapatinib] (first compound 2 µM, partner dose 4 µM) showed a cell count (A101D) of 73.6%, a cell count (A2058) of 79% and a cell count (A375) of 113%.

`Cn1cnc2c(F)c(Nc3ccc(Br)cc3Cl)c(C(=O)NOCCO)cc21` [selumetinib] + CC(C)C[C@H](NC(=O)[C@H](Cc1ccccc1)NC(=O)c1cnccn1)B(O)O [Bortezomib] (first compound 0.075 µM, partner dose 0.005 µM) gave a cell count (A101D) of 12.1%, a cell count (A2058) of 7.33% and a cell count (A375) of 82.3%.

`CCN(CC)CCNC(=O)c1c(C)[nH]c(/C=C2\C(=O)Nc3ccc(F)cc32)c1C` [sunitinib] + Clc1ccc(Nc2nnc(Cc3ccncc3)c3ccccc23)cc1 [vatalanib] (first compound 2 µM, partner dose 10 µM) was tested, and the cell count (A101D) was 57.9%, the cell count (A2058) was 59.1% and the cell count (A375) was 92.8%.

Molecule `CCN(CC)CCNC(=O)c1c(C)[nH]c(/C=C2\C(=O)Nc3ccc(F)cc32)c1C` [sunitinib] + CC(=O)O[C@@]12CO[C@@H]1C[C@H](O)[C@@]1(C)C(=O)[C@H](O)C3=C(C)[C@@H](OC(=O)[C@H](O)[C@@H](NC(=O)OC(C)(C)C)c4ccccc4)C[C@@](O)([C@@H](OC(=O)c4ccccc4)[C@H]21)C3(C)C [Docetaxel] (first compound 2 µM, partner dose 0.0005 µM) has a cell count (A101D) of 55.8%, a cell count (A2058) of 8.95% and a cell count (A375) of 67.8%.

`C[C@]1(O)C[C@@H](c2nc(-c3ccc4ccc(-c5ccccc5)nc4c3)c3c(N)nccn32)C1` + Nc1nc(F)nc2c1ncn2[C@@H]1O[C@H](CO)[C@@H](O)[C@@H]1O [fludarabine] (first compound 2 µM, partner dose 1 µM) was tested, and the cell count (A101D) was 89%, the cell count (A2058) was 63.7% and the cell count (A375) was 31.8%.

`C[C@]1(O)C[C@@H](c2nc(-c3ccc4ccc(-c5ccccc5)nc4c3)c3c(N)nccn32)C1` + O=C(O)[C@@H]1[O][Sb](=[O])([O][Sb]2(=[O])[O][C@H]([C@H](O)CO)[C@H](O)[C@H](C(=O)O)[O]2)[O][C@H]([C@H](O)CO)[C@@H]1O [stibogluconate] (first compound 2 µM, partner dose 10 µM) gave a cell count (A101D) of 97.6%, a cell count (A2058) of 97% and a cell count (A375) of 82.3%.

Work on `CCN(CC)CCNC(=O)c1c(C)[nH]c(/C=C2\C(=O)Nc3ccc(F)cc32)c1C` [sunitinib] + NC1(c2ccc(-c3nc4ccn5c(=O)[nH]nc5c4cc3-c3ccccc3)cc2)CCC1 [MK2206] (first compound 2 µM, partner dose 2 µM) yielded a cell count (A101D) of 43.9%, a cell count (A2058) of 44.9% and a cell count (A375) of 88.4%.
